The values that follow come from article PMC10865702.

Amino acid sequences for entries named in this document (tags omitted).
UniProt P53350: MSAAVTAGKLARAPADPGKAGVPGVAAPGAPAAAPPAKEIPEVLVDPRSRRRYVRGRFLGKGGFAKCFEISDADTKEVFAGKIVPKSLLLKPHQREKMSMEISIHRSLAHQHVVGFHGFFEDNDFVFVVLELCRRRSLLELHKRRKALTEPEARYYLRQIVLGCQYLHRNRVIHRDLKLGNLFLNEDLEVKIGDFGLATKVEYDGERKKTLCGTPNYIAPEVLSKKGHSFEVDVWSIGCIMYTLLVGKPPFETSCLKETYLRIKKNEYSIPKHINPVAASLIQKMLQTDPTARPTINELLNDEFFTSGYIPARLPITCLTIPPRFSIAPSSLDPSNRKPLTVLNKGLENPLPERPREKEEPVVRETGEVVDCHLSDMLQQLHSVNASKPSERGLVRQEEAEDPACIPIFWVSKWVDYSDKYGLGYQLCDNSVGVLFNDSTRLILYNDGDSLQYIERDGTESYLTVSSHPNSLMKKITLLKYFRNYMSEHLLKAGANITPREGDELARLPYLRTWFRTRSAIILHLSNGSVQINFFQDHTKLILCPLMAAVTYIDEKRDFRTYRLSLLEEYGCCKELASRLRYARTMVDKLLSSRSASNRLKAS

Test [1] concerns the target T1, Flag-tagged RhoGDI1 (Rho guanine nucleotide dissociation inhibitor 1) (human) (UniProt P52565).
T1 sequence: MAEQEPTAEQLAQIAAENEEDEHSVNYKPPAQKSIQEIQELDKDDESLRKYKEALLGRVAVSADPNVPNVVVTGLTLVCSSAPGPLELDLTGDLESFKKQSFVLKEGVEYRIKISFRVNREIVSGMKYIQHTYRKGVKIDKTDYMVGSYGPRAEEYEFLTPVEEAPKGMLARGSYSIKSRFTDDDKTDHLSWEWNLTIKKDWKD
The test can be described thus: co-IP; 293T cells co-transfected; lysates in RIPA buffer; immunoprecipitated with anti-HA or anti-Flag at 4 °C overnight, agarose beads 2 h; immunoblot with HA, Flag or GFP antibodies. On the technique in general: In western blotting, separated proteins are transferred to a membrane and probed.

Test [2] has as its target T2, GST-RhoGDI1 truncation mutant aa 1-134 (human) (UniProt P52565).
T2 sequence: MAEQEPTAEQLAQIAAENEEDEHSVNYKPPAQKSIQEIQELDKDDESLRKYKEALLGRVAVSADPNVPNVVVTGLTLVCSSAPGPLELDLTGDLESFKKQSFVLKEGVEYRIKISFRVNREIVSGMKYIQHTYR
The test can be described thus: pull-down; GST-RhoGDI1 (wt or truncation mutants) or GST on GSH-beads, washed, incubated with His-PLK1 expression lysate (E. coli) at 4 °C overnight; immunoblot with PLK1 and GST antibodies; only the target purified.

The target in test [3] is T3, GST-RhoGDI1 truncation mutant aa 1-67 (human) (UniProt P52565).
T3 sequence: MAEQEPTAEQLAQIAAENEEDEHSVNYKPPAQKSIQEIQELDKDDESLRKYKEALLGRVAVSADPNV
Described as above.

Test [4] deals with T4, GST-RhoGDI1 truncation mutant aa 112-134 (human) (UniProt P52565).
T4 sequence: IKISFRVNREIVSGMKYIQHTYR
The description is as above.

Test [5] addresses T5, GST-RhoGDI1 truncation mutant aa 68-89 (human) (UniProt P52565).
T5 sequence: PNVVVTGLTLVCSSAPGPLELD
Described as above.

For test [6], the target named is T6, GST-RhoGDI1 truncation mutant aa 90-111 (human).
T6 sequence: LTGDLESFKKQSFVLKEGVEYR
The test is described as above.

Test [7] concerns the target T7, GST-fused wild-type RhoGDI1 (human) (UniProt P52565).
T7 sequence: T1 sequence
The description is as above.

In test [8] the target is HA-tagged PLK1 (polo-like kinase 1) (human) (UniProt P53350). Briefly: co-IP; HeLa cells co-transfected with HA-PLK1 and Flag-RhoGDI1 or Flag-RhoGDI2; lysates immunoprecipitated with HA antibody; immunoblot with HA and Flag antibodies.
Test [9] has the same target. The test can be described thus: co-IP; 293T cells co-transfected; lysates in RIPA buffer; immunoprecipitated with anti-HA or anti-Flag at 4 °C overnight, agarose beads 2 h; immunoblot with HA, Flag or GFP antibodies.
The target in test [10] is endogenous PLK1 (human (endogenous in HeLa)) (UniProt P53350). Briefly: proximity ligation; Duolink In Situ Red kit, fixed HeLa cells, PLK1 and RhoGDI1 antibodies, confocal microscopy.
The target is the same in test [11]. The test can be described thus: co-IP; HeLa lysates, endogenous proteins; immunoprecipitated with IgG (control) or PLK1 antibodies; immunoblot with PLK1 or RhoGDI1 antibodies.
For test [12] the target is unchanged. Briefly: proximity ligation; PLK1 and RhoGDI1 antibodies in HeLa cells transfected with GFP-RhoGDI1 aa 90-111; PLA dots in GFP-positive against GFP-negative cells.

Results are given in words; binding and its absence hold for the method and conditions named. Binding seen in cells or lysates may run through a third protein. Some binding calls cover weakened binding; strength is not graded here. For some of these results: Tags and fused reporters may be left off the sequences shown.

Take “HA-tagged PLK1 (polo-like kinase 1) (from UniProt P53350 1-603) (enzyme)”: the binding entry in [1] was “binds”.

On to “His-fused PLK1 (from UniProt P53350 1-603) (enzyme)”, for which the binding result in [2] is listed as “binds”; in [3] it was “no binding”; in test [4], “no binding”; in test [5], “no binding”; in [6] it was “binds”; in test [7], “binds”.

B1: Flag-tagged RhoGDI1 (Rho guanine nucleotide dissociation inhibitor 1) (protein, UniProt P52565-1 1-204)
chain: T1 sequence
On to B1, for which the binding entry in [8] and in [9] was “binds” each time.

B2: endogenous RhoGDI1 (protein, UniProt P52565 1-204)
chain: T1 sequence
For B2, the binding entry in [10], in [11] and in test [12] was “binds” throughout.

For the molecule LTGDLESFKKQSFVLKEGVEYR (domain or fragment) [GFP-tagged RhoGDI1 truncated mutant (aa 90-111)], the binding result in test [12] and in [9] was “binds” each time.

B3: Flag-RhoGDI2 (protein, UniProt P52566 1-201)
chain: MTEKAPEPHVEEDDDDELDSKLNYKPPPQKSLKELQEMDKDDESLIKYKKTLLGDGPVVTDPKAPNVVVTRLTLVCESAPGPITMDLTGDLEALKKETIVLKEGSEYRVKIHFKVNRDIVSGLKYVQHTYRTGVKVDKATFMVGSYGPRPEEYEFLTPVEEAPKGMLARGTYHNKSFFTDDDKQDHLSWEWNLSIKKEWTE
With B3, the binding result in test [8] and in test [9] was “no binding” each time.
